Sequences and labels used below:
B1: OR4K15 (parent)
chain: GUUAACGGUCAUAGGCCAUGGAAACUAGGAGCACCAUUUCGCUGCCAGUGAAGAAAUGAACAAAGAAAAUCUGGGCCAGGCAGGCAUCAAAAGAAAUAGUCUUGCGCUCAACCAGAAAGUCUGUAAUCAUUUUAAGGGUA

Read counts are not given, so values of variants with three or more changes are uncertain.

In the data set the parent is B1. The data set can be described thus: self-cleavage, relative activity (ratio to wild type); higher = more cleavage; in vitro, sequencing; the parent is a self-cleaving ribozyme.
Consider C16U U43C U108C A116G, for which the self-cleavage turned out to be 0.03. The result for A13U U57C A94C reads 0.52; that for A13G A98G U102C, 2.11; that for A13U A47G U57C A78U U131C, 0.48. Next, A13G U19C A33G A52G A60G: 0.85; A13G A95G A129G: 1.61; A13G U103C G123A U132C: 0.44.

Turning to A13U A68G U70C A86C U139C, the self-cleavage is 0.42. The result for A13U G28U U39C A51G A111G U130C reads 0.03. Next, C16U A94U A117G A140U: 1.83. Take A13G C25U A30G U37A U120C U124C: the self-cleavage was 0.33. The result for A13U U37C U38C A116G U139C reads 0.79; that for C16G A52G G74U U87C, 0.23; that for C17U A24U A56G A86G U130C, 1.27. Next, A13G U43C U57C A67G A78G A111G: 0.03; A13U A56G U97C A98G U108C A110U A126G: 0.01. With A13G U38A U57G U122A, the self-cleavage turned out to be 0.92. The result for G14A A52G A62G reads 1; that for C16U A24G A47G U120C, 0.85. As for G15U A92G A126U, the self-cleavage came to 0.6.

As to G14A U37C A55G U103C, the self-cleavage is 0.06.

Consider C17A U49A A64G, for which the self-cleavage is 1.29.

Take G15U A33U U43C U87C A89U: the self-cleavage is 1.47. G14A A51G A64G: the self-cleavage came to 1.24. Next, G15A A60G G75C A86G A126G: 0.07; G14A A55U U102C A126G: 1.02. Regarding G15A A68G U70C A82U A91G, the self-cleavage turned out to be 0.13. The result for A13G U37C U39C A69G U122C reads 1.29; that for G14A A33U A90G, 1.3. Next, C16U G50A A67G U103C U132C: 0.31; C16U U87C C105G: 0.14; A13U U37C G50A A86U: 1.35. The result for G15A A30U G74U A92G reads 0.13; that for A13G U72A A126G, 0.2; that for G14A A62C U108C, 0.02. For G14U A55G A111G, the self-cleavage was determined as 0.05.

Turning to G14A U26A U38A A95C U108C, the self-cleavage came out at 0.01.

On to G14A A18U U87C A96G A134G, for which the self-cleavage is 1.01. Next, C17U A52U A68G: 0.68. Next, G15A U26A A59G A60G: 1.22; A13U A27C U70C A92U U127C U133C: 0.4. The result for A13G U19C A66G A94G reads 0.57; that for G14A A86G U97C A116G, 0.31; that for G15A U43C A52G A68U U120C, 1.64.

Turning to C16U A33C A47G U49G A95G, the self-cleavage was 1.12. Turning to G14U U19C U37C A52G, the self-cleavage was found to be 1.21. The result for A13G G41C A60G U103C reads 0.98. On to G14A A22U A96U U130A, for which the self-cleavage was 1.11. The result for A13G U39C A91G A140G reads 1.41; that for A13G C121A U131C, 1.86; that for A13U A22G A23G U57C, 1.03. Next, A13U U43C A62U U108C A116U: 0.02; G14A U38A U39C A67G: 1.04; G15U A22G A96G: 0.86. As for A13U U19C A27U U87C U100C, the self-cleavage was found to be 1.64. With C16G A23G C25U U131C, the self-cleavage was 0.25.

With C16U U103C A134G G138A, the self-cleavage was found to be 1. Regarding A13G A117G U127C, the self-cleavage was determined as 1.53.

For the variant C16U U38C A68U U72C A95C U132C, the self-cleavage was 0.15. Next, A13G U100C U120A: 1.51; C16U A27U G99U: 0.78; A13U A30G A96G U127C: 1.1.

Consider G14A A47U A63G A92G A135U, for which the self-cleavage worked out at 0.13.

Take G15A A33G A51G: the self-cleavage was 0.51. Next, G15A A55G A56G: 1.13. The result for A13G G74A C76U reads 0.33; that for A13U U57C A69U, 1.1. Next, A13G A98G U108C: 0.05; G14A A30G A78G A111G A129G U131C: 0; A13U A86G U87A: 1.49. Consider A13G G48A A78G U100C A125G, for which the self-cleavage was found to be 0.32. Next, G14C A91G A140G: 0.74; G15U A63G C128U A129C: 0.5; A13G G44A C45A U49C G79A: 0.03.

With A13G U19C A94U U130C, the self-cleavage is 1.1.

On to A13G A98G U130C, for which the self-cleavage was found to be 0.32. Next, G15C U38C A60G A98G U120C: 0.45.

Turning to A13U A86G A94G U122C A140G, the self-cleavage came to 0.67. Next, C16G A18G U49C A62U A82U: 0.08; A13G U43C A64G: 1.2. For the variant A13U A52G A96G U102C, the self-cleavage turned out to be 2.28. Next, C17A A95G U122A: 1.62.

In the case of C17U A33G A111G, the self-cleavage is 0.07.

Regarding A13U A68G A114G, the self-cleavage amounted to 1.1.

With G15A U43C A63U A64G A95G, the self-cleavage was determined as 1.48. Turning to C16U A67G A126G, the self-cleavage worked out at 1.02.

G15A U39C A69G A92G: the self-cleavage is 0.94. Next, A13G U38C A91G: 1.15; G14A A22G A95G: 1.57; A13U A56G A92G A116U U122A: 0.05.

On to A13U U43C U131C, for which the self-cleavage came to 0.96. Next, C16U A90G A92G U97C: 0.65; G15A A60G A82U A129G: 0.04.

For the variant A13G U39A A125G, the self-cleavage was found to be 0.51. Next, G14A A54G U127C: 0.63; A13G U37C A67U A135U: 1.67. The result for G15A U57C A114G reads 0.09.

G15A A18U A30G A51U A63G A94G A96G: the self-cleavage was determined as 1.66. Next, A13G U38C A94G: 0.66; G14A A54G U122C: 0.22. The result for G15A A23G U43C A69G U133C reads 1.03.

Consider C17U A30G A111U A118G, for which the self-cleavage came out at 0.05. The result for G15A A33U A56G reads 0.98. Next, A13U G15U A23G A82G U102A A110G: 0.01.

As for G14U A36G A66G, the self-cleavage worked out at 1.07.

As for A13U A47G A67G A89G G99A, the self-cleavage amounted to 0.25. The result for C17A A86G G106A U127A reads 0.02.

As for A13U A23G U49C A63G U122C U130G, the self-cleavage was found to be 0.69. With A13U A66G G79U A82U A96G, the self-cleavage came out at 0.14.

With A13G G75A A82G A89U, the self-cleavage amounted to 0.24. On to A13G U70C A114G U132C, for which the self-cleavage was found to be 0.31. Next, A13G G104A A116G: 0.13. Consider A13G U26C A114U, for which the self-cleavage is 0.19. Next, A13G U70C G93U: 0.42.

Take G14A A23G U103C A129C: the self-cleavage is 0.34. Next, A13G U49C U97A: 1.64; G15A C45U A118G U124A: 0.58; G14A U39C A52G A59G A67G A111G: 0.02. Next, A13U A66G A125G U130C U132G: 0.58.

Regarding C16U A47C A64G A66G U122C, the self-cleavage came out at 1.06. Next, A13U A78G A126G A134U: 0.15; A13G U39C U57C U130C: 1.11. In the case of A13U A52G A118G, the self-cleavage stood at 0.85.

Regarding G15U A55G A69U U97C U122C, the self-cleavage was determined as 2.17. Next, C16U A55G U87C U103A: 0.57; A13G A89G C101U A126G: 0.08.

Turning to A13U A47C U87C A92C A118U, the self-cleavage is 0.12. The result for C16U A54G A118U A125U reads 1.1. Next, C17A A69G A78G: 0.5; C17A A23G A135U: 1.16; A13G U26C U43A: 0.03. Next, C17U A36G A96C A118G U124G: 0.48; C16A C42U G80C: 0.35. As for A13U A33G A67G A91G A95G A125G, the self-cleavage amounted to 0.93. The result for G14A A33G U133A reads 1.16. Next, C16U U26C G74A U102C A117G U120C: 0.22; G14U A24U U72A U127C: 0.19. The result for G15C A56G U100C reads 2.

Regarding A13G U37C A54U A69U U108C A114G C128A U131C, the self-cleavage was determined as 0.03. Next, G14A A60G A68G U102C: 0.99. The result for G14A U19A C42U A52G A56G A60U A86G reads 1.01; that for A13U A116G U120C, 0.02; that for C17U A55G A110G A126C, 0.11. Next, A13G A89G U122A: 1.33. With A13G A91G A117G A125G, the self-cleavage was 0.58. The result for C17U A23G A92G U108C C113U reads 0; that for G15U A18G U19C A27G G29A U43C U72G A91G, 0.16. Regarding C17A U103C U108C A126C, the self-cleavage was determined as 0.01. The result for C17U A22G A64G U132C reads 0.53; that for C16A A82G U122C, 0.39. The result for A13G U39C A111G reads 0.12; that for G15C A33G A110G A116U, 0.03.

With A13G A126G U127C, the self-cleavage worked out at 0.38.

Turning to C17A A54U A60G, the self-cleavage is 0.49.

Regarding A13G U38C U87A G119A, the self-cleavage stood at 1.45. For the variant G15U A22G A23G U70A A90G A98G, the self-cleavage is 0.21. The result for C16U A51G A111G reads 0.07. Next, A13G U57C C71A: 0.51; A13G C40A A91G A92G: 1.65. Next, C17A A52G G53A G136A: 2.14; G14A A86G A135U: 1.09; G14A A23U U127C: 0.73. As for G15A C16U U87C A94G, the self-cleavage amounted to 2.27.

On to A13G U43C A118G, for which the self-cleavage was determined as 0.95. Next, G15A A60G G136A: 1.23; G15U A52G A95G: 1.52. Next, G15A A18U U72A A92G C105U: 0.01.

Values taken from the RNAGym collection of RNA variant scans (doi:10.7554/elife.90254).
